# According to PubChem BioAssay AID2675 (National Center for Advancing Translational Sciences (NCATS), 2010):
# Out of some 280,000 compounds screened, about 100 (0.036%) were called active. Inconclusive means that the source gave no clear call. Such entries were picked first, then a sample of the others. The call rests on the fitted dose curve; in most records, active means well fitted inhibition curve with a large enough effect in the signal ratio, with a control signal flat (not every such curve was filed as active); inconclusive means small, poorly fitted or top-dose-only effect, or effect the other way, or a change in a side signal; inactive means no such curve, though single readings can be large or run the other way; the % refers to the signal ratio. Where the call is inconclusive, the potency comes from a doubtful curve fit. A note “side channel” means that the fit belongs to a control or component signal, not to the main read-out.
# Target: Muscleblind-like protein 1 (Homo sapiens) (UniProt Q9NR56)
# UniProt Q9NR56, sequence (Q9NR56 whole entry, looked up): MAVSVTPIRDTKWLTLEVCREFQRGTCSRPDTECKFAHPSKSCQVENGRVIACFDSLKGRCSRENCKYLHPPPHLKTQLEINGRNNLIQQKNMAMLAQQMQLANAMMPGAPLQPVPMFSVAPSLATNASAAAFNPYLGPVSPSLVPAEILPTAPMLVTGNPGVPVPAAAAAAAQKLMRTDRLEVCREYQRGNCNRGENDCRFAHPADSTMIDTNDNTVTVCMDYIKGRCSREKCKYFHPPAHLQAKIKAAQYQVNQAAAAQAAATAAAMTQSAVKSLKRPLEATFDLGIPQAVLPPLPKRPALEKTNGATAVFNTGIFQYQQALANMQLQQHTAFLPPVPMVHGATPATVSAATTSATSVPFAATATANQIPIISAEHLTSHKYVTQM
# Experiment: qHTS Assay for Inhibitors of MBNL1-poly(CUG) RNA binding
# Details: TR-FRET MBNL1-His/biotin-(CUG)12 binding, 665/545 ratio; series mostly up to 57.5 µM
# Outline: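 MBNL1-His + Biotin-(CUG)12, cpd titration 92 nM–58 uM; Tb anti-His Ab 0.055 ng/ul, SA-XL665 5 nM (final); 60 min RT; ratiometric 665/545 nm, Ex 340 nm; normalized to buffer and full-complex controls.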
# Potency means the concentration at half of the fitted maximal effect; tags describe the fitted curve by direction and shape or compound fluorescence and quenching.
row,SMILES,Potency
1,COc1cc(C2C(C(C)=O)=C(O)C(=O)N2c2ccc(C)cc2)ccc1O (centres undefined),"inconclusive: 14.1 µM [quencher, side channel, partial curve]"
2,Oc1ccc(/C=C/c2cnccn2)cc1,"inconclusive: 14.1 µM [quencher, partial curve]"
3,c1ccc2c(c1)CCN(C1=Nc3cccc4cccc1c34)C2,"inconclusive: 15.8 µM [quencher, side channel, partial curve]"
4,Cc1nnc(N/N=C/c2cc([N+](=O)[O-])c(N3CCC(C)CC3)cc2N2CCC(C)CC2)n1N,"inconclusive: 17.8 µM [quencher, single point]"
5,CCOC(=O)c1cnn2cc(-c3[nH]ncc3[N+](=O)[O-])cnc12,"inconclusive: 2.82 µM [quencher, side channel, full curve, poor fit]"
6,COc1cccc(NC(=O)Cn2nnc(C(=O)NCc3cccs3)c2N)c1,inactive
7,O=C(O)c1ccccc1-c1ccc(/C=c2\sc3nc4cc(Br)cnc4n3c2=O)o1,"inconclusive: 35.5 µM [quencher, side channel, single point]"
8,CCN(CC)c1ccc2nc3ccccc3[n+](CC)c2c1,"inconclusive: 0.708 µM [quencher, side channel, full curve]"
9,CCOC(=O)C1=C(C)N=c2s/c(=C/c3cccc([N+](=O)[O-])c3O)c(=O)n2C1c1ccccc1 (centres undefined),"inconclusive: 31.6 µM [quencher, side channel, single point]"
10,CN(C)c1ccc(P(=O)(OCc2ccccc2)C(O)c2ccc(Cl)cc2)cc1 (centres undefined),"inconclusive: 6.31 µM [fluorescent, side channel, single point]"
11,Cc1ccc(NC(=O)c2ccc3nsnc3c2)c(C)c1,"inconclusive: 3.55 µM [quencher, side channel, full curve]"
12,CC1CCCN(C(=O)C2CCN(S(=O)(=O)c3cccc4nonc34)CC2)C1 (centres undefined),"inconclusive: 12.6 µM [quencher, side channel, partial curve]"
13,Cc1ccc(C)c(N(C)C(=O)CCS(=O)(=O)c2cccc3nonc23)c1,"inconclusive: 12.6 µM [quencher, side channel, partial curve]"
14,Cc1ccc(C)c2nc3sc(C(=O)N4CCCc5ccccc54)c(N)c3cc12,inactive
15,Cc1cc(C(=O)NCC(=O)OCC(=O)Nc2ccc(OC(F)F)cc2)ccc1[N+](=O)[O-],"inconclusive: 2.51 µM [quencher, side channel, full curve, poor fit]"
16,O=c1cc(CSc2nnc3ccccn23)c2c(ccc3ccccc32)o1,"inconclusive: 12.6 µM [quencher, side channel, partial curve]"
17,CC(C)(C)NC(=O)CN(C(=O)c1ccc(CN2CCOCC2)o1)c1ccc2c(c1)OCCO2,inactive
18,COc1ccc(N=C2SCC(=O)N2CCc2ccc(OC)c(OC)c2)cc1,inactive
19,COC(=O)c1ccccc1NC(=O)CN1C(=O)C2CCCN2c2ncc(Cl)cc21 (centres undefined),"inconclusive: 0.891 µM [quencher, side channel, single point]"
20,Cc1cc(N2CCC(C)CC2)nc(-c2ccccc2O)n1,inactive

row,SMILES,Potency
1,COCCCNc1c2c3c(cccc3[nH]c1=O)C(=O)c1ccccc1-2,"inconclusive: 5.62 µM [quencher, side channel, partial curve]"
2,CN(C)c1oc(-c2cccs2)nc1C#N,"inconclusive: 25.1 µM [quencher, side channel, single point]"
3,CNS(=O)(=O)c1cc(S(=O)(=O)NC)c2cccc3c2c1NC3=O,"inconclusive: 7.94 µM [quencher, side channel, partial curve]"
4,Cc1ccc(NC(=O)/C=C/c2ccco2)nc1,"inconclusive: 14.1 µM [quencher, side channel, partial curve]"
5,O=C(O)/C=C/c1cnc2ccccc2n1,"inconclusive: 39.8 µM [quencher, side channel, single point]"
6,COc1ccc2c(c1OC)C(=O)N1N=C(c3ccc(Cl)cc3)CC21 (centres undefined),"inconclusive: 3.16 µM [quencher, side channel, partial curve]"
7,O=C(CSc1cccc2cccnc12)N/N=C/c1ccncc1,"inconclusive: 28.2 µM [quencher, single point]"
8,c1ccc(Cn2nnnc2C(c2cccs2)N2CCCCCC2)cc1 (centres undefined),"inconclusive: 1.41 µM [quencher, side channel, full curve, poor fit]"
9,Cn1c(=O)cc(SCC(=O)NCCCN2CCN(c3ccc(F)cc3)CC2)c2ccccc21,inactive
10,COc1ccc(-c2c(C)n([O-])c3c([n+]2=O)CCC3)cc1OC,"inconclusive: 22.4 µM [quencher, side channel, single point]"
11,O=C(NCCN1CCCCC1)Nc1cccc(C(F)(F)F)c1,inactive
12,CC1CCN(C(=S)c2cn(Cc3ccccc3F)c3ccccc23)CC1,"inconclusive: 2 µM [quencher, side channel, full curve]"
13,O=Cc1ccc(N2CCCC2)c([N+](=O)[O-])c1,"inconclusive: 25.1 µM [quencher, side channel, partial curve]"
14,CN(C)S(=O)(=O)c1cccc(NC(=O)COC(=O)c2cc3ccccc3oc2=O)c1,"inconclusive: 3.16 µM [quencher, side channel, full curve]"
15,Nc1nnnn1CC(=O)N/N=C/c1cc([N+](=O)[O-])ccc1Cl,"inconclusive: 7.94 µM [quencher, side channel, partial curve]"
16,Cc1ccc(N/C(=C\C(=O)c2ccccc2)C(=O)O)cc1,inactive
17,O=C(COc1ccccc1)Nc1cccc2nsnc12,"inconclusive: 15.8 µM [quencher, side channel, partial curve]"
18,O=C(Nc1ccccc1[N+](=O)[O-])c1nc[nH]c1C(=O)NCCO,"inconclusive: 11.2 µM [quencher, partial curve]"
19,O=C(NN=C1c2ccccc2-c2ccccc21)c1ccccc1Br,"inconclusive: 31.6 µM [quencher, side channel, single point]"
